The results in this text go back to PubChem BioAssay (NCATS).

The list shows a part of the results. Shown are side measurements of this screen, not its main read-out; they come without a call. The note in brackets gives the kind of curve behind each potency; many fits are weak.

This assay can be described thus: qHTS drug screen for cell cycle checkpoint inhibitors in PARPi-resistant BRCA-mutant ovarian cancer cell lines. (AID 1963452). The settings on record: PEO1/OlaR viability, CellTiter-Glo luminescence, 96 h. The procedure, abridged: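 PEO1, PEO4 and PEO1/OlaR ovarian cancer cells, 600 per well, exposed 96 h at 37C to a dilution series. Viability read by CellTiter-Glo luminescence, normalized to DMSO and empty wells; activity summarized as Z-AUC.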

Setting [1] is: measured here: PEO1 parental viability.
Tags give direction and shape of the fitted curve.

Regarding `Cc1c(N)nc([C@H](CC(N)=O)NC[C@@H](N)C(N)=O)nc1C(=O)N[C@H](C(=O)N[C@@H](C)[C@H](O)[C@@H](C)C(=O)N[C@@H](C(=O)NCCc1nc(-c2nc(C(=O)NCCC[S+](C)C)cs2)cs1)[C@@H](C)O)C(O[C@H]1O[C@H](CO)[C@H](O)[C@@H](O)[C@H]1O[C@H]1O[C@H](CO)[C@@H](O)[C@H](OC(N)=O)[C@@H]1O)c1cnc[nH]1` (stereo not given in full), the concentration at half-maximal activity (AC50) under setting [1] is 37.9 nM [falling, full curve, poor fit].

Consider `Cn1c(CCCC(=O)O)nc2cc(N(CCCl)CCCl)ccc21`, for which the AC50 under setting [1] is 15500 nM [falling, single point].

Consider `CC(=O)OC[C@H]1O[C@@H]([S-])[C@H](OC(C)=O)[C@@H](OC(C)=O)[C@@H]1OC(C)=O.CC[PH+](CC)CC.[Au]`, for which the concentration at half-maximal activity (AC50) reads like this: under setting [1], 1550 nM [falling, full curve]; (measured here: PEO4 viability) 692 nM [falling, full curve].

In the case of `Cc1ncc(OC[C@@]2(c3cccc(F)c3)C[C@H]2C(=O)Nc2ccc(F)cn2)c(C)n1`, the AC50 (measured here: PEO4 viability) is 1950 nM [rising, partial curve, poor fit].

Take `CN[C@@H]1C[C@H]2O[C@@](C)([C@@H]1OC)n1c3ccccc3c3c4c(c5c6ccccc6n2c5c31)C(=O)NC4`: the AC50 was 195 nM [falling, full curve] under setting [1] and 97.7 nM [falling, full curve] (measured here: PEO4 viability).

Take `CC(NC(C)(C)C)C(=O)c1cccc(Cl)c1` (stereo not given): the AC50 under setting [1] is 3090 nM [falling, partial curve, poor fit].

Consider `C[C@@H]1CC[C@@]2(OC1)O[C@H]1C[C@H]3[C@@H]4CC=C5C[C@@H](O[C@@H]6O[C@H](CO)[C@@H](O[C@@H]7O[C@@H](C)[C@H](O)[C@@H](O)[C@H]7O)[C@H](O)[C@H]6O[C@@H]6O[C@@H](C)[C@H](O)[C@@H](O)[C@H]6O)CC[C@]5(C)[C@H]4CC[C@]3(C)[C@H]1[C@@H]2C`, for which the AC50 under setting [1] is 3890 nM [falling, full curve] and the AC50 (measured here: PEO4 viability) was 3890 nM [falling, full curve].
